Results reported in patent US20250262222A1, “HETEROCYCLIC COMPOUNDS, COMPOSITIONS THEREOF, AND METHODS OF TREATMENT THEREWITH” (BeiGene Switzerland GmbH, priority 2022, published 2025).

What was measured:
[1] = biological target: GST-tagged GDP-loaded WT KRAS (amino acids 1-188) (Homo sapiens, UniProt P01116); assay: biochemical
[2] = biological target: GST-tagged GDP-loaded KRAS G12D (amino acids 1-188) (Homo sapiens, UniProt P01116, G12D); assay: biochemical

Structure (SMILES)	IC50 [1]	IC50 [2]	KRas WT selectivity ([2]; compared to dibasic G12D inhibitors (e.g., Example 17))
CCc1cc(N)cc(-c2nc3c4c(nc(OCC56COC(C5)C6)nc4c2F)N2C[C@H]4CC[C@H](N4)[C@H]2CCO3)c1C(F)(F)F [Example 68, 3-((6aR,7S,10R)-13-((2-oxabicyclo[2.1.1]hexan-4-yl)methoxy)-1-fluoro-5,6,6a,7,8,9,10,11-octahydro-4-oxa-3,11a,12,14,15-pentaaza-7,10-methanocyclohepta[4,5]cycloocta[1,2,3-de]naphthalen-2-yl)-5-ethyl-4-(trifluoromethyl)aniline]	> 1000 nM	5.5 nM	
COC(=O)N1CC(C)(COc2nc3c4c(nc(-c5cc(N)cc(C)c5C(F)(F)F)c(F)c4n2)OCC[C@@H]2[C@@H]4CC[C@H](CN32)N4)C1 [Example 43, methyl 3-((((6aR,7S,10R)-2-(5-amino-3-methyl-2-(trifluoromethyl)phenyl)-1-fluoro-5,6,6a,7,8,9,10,11-octahydro-4-oxa-3,11a,12,14,15-pentaaza-7,10-methanocyclohepta[4,5]cyclo-octa[1,2,3-de]naphthalen-13-yl)oxy)methyl)-3-methylazetidine-1-carboxylate]	585 nM	2.5 nM	
Cc1cc(N)c(F)c(-c2nc3c4c(nc(OCC5(C(F)F)COC5)nc4c2F)N2C[C@H]4CC[C@H](N4)[C@H]2CCO3)c1C(F)(F)F [Example 54, 3-((6aR,7S,10R)-13-((3-(difluoromethyl)oxetan-3-yl)methoxy)-1-fluoro-5,6,6a,7,8,9,10,11-octahydro-4-oxa-3,11a,12,14,15-pentaaza-7,10-methanocyclohepta[4,5]cyclo-octa[1,2,3-de]naphthalen-2-yl)-2-fluoro-5-methyl-4-(trifluoromethyl)aniline]	> 1000 nM	15 nM	
Cc1cc(N)cc(-c2nc3c4c(nc(OCC56COCC(F)(C5)C6)nc4c2F)N2C[C@H]4CC[C@H](N4)[C@H]2CCO3)c1C(F)(F)F [Example 30, 3-((6aR,7S,10R)-1-fluoro-13-((5-fluoro-3-oxabicyclo[3.1.1]heptan-1-yl)methoxy)-5,6,6a,7,8,9,10,11-octahydro-4-oxa-3,11a,12,14,15-pentaaza-7,10-methanocyclohepta[4,5]cyclo-octa[1,2,3-de]naphthalen-2-yl)-5-methyl-4-(trifluoromethyl)aniline]	259 nM	1.2 nM	
C[C@](O)(COc1nc2c3c(nc(-c4cc(N)cc(Cl)c4C(F)(F)F)c(F)c3n1)OCC[C@@H]1[C@@H]3CC[C@H](CN21)N3)C(F)(F)F [Example 44, (S)-3-(((6aR,7S,10R)-2-(5-amino-3-chloro-2-(trifluoromethyl)phenyl)-1-fluoro-5,6,6a,7,8,9,10,11-octahydro-4-oxa-3,11a,12,14,15-pentaaza-7,10-methanocyclohepta[4,5]cyclo-octa[1,2,3-de]naphthalen-13-yl)oxy)-1,1,1-trifluoro-2-methylpropan-2-ol]	> 1000 nM	5.2 nM	
Cc1cc(N)cc(-c2nc3c4c(nc(OCC56COC(C)(C5)C6)nc4c2F)N2C[C@H]4CC[C@H](N4)[C@H]2CCO3)c1C(F)(F)F [Example 28, 3-((6aR,7S,10R)-1-fluoro-13-((1-methyl-2-oxabicyclo[2.1.1]hexan-4-yl)methoxy)-5,6,6a,7,8,9,10,11-octahydro-4-oxa-3,11a,12,14,15-pentaaza-7,10-methanocyclohepta[4,5]cyclo-octa[1,2,3-de]naphthalen-2-yl)-5-methyl-4-(trifluoromethyl)aniline]	379 nM	1.1 nM	
COC1(COc2nc3c4c(nc(-c5cc(N)cc(Cl)c5C(F)(F)F)c(F)c4n2)OCC[C@@H]2[C@@H]4CC[C@H](CN32)N4)COC1 [Example 61, 3-chloro-5-((6aR,7S,10R)-1-fluoro-13-((3-methoxyoxetan-3-yl)methoxy)-5,6,6a,7,8,9,10,11-octahydro-4-oxa-3,11a,12,14,15-pentaaza-7,10-methanocyclohepta[4,5]cyclo-octa[1,2,3-de]naphthalen-2-yl)-4-(trifluoromethyl)aniline]	354 nM	0.46 nM	
Nc1cc(Cl)c(C(F)(F)F)c(-c2nc3c4c(nc(OCC56CCC(C5)OC6)nc4c2F)N2C[C@H]4CC[C@H](N4)[C@H]2CCO3)c1 [Example 41, 3-((6aR,7S,10R)-13-((2-oxabicyclo[2.2.1]heptan-4-yl)methoxy)-1-fluoro-5,6,6a,7,8,9,10,11-octahydro-4-oxa-3,11a,12,14,15-pentaaza-7,10-methanocyclohepta[4,5]cyclo-octa[1,2,3-de]naphthalen-2-yl)-5-chloro-4-(trifluoromethyl)aniline]	125 nM	0.51 nM	
COCC1(COc2nc3c4c(nc(-c5cc(N)cc(Cl)c5C(F)(F)F)c(F)c4n2)OCC[C@@H]2[C@@H]4CC[C@H](CN32)N4)COC1 [Example 62, 3-chloro-5-((6aR,7S,10R)-1-fluoro-13-((3-(methoxymethyl)oxetan-3-yl)methoxy)-5,6,6a,7,8,9,10,11-octahydro-4-oxa-3,11a,12,14,15-pentaaza-7,10-methanocyclohepta[4,5]cyclo-octa[1,2,3-de]naphthalen-2-yl)-4-(trifluoromethyl)aniline]	307 nM	0.74 nM	
Cc1cc(N)cc(-c2nc3c4c(nc(OCC56CCC(C(F)F)(C5)OC6)nc4c2F)N2C[C@H]4CC[C@H](N4)[C@H]2CCO3)c1C(F)(F)F [Example 56, 3-((6aR,7S,10R)-13-((1-(difluoromethyl)-2-oxabicyclo[2.2.1]heptan-4-yl)methoxy)-1-fluoro-5,6,6a,7,8,9,10,11-octahydro-4-oxa-3,11a,12,14,15-pentaaza-7,10-methanocyclohepta[4,5]cyclo-octa[1,2,3-de]naphthalen-2-yl)-5-methyl-4-(trifluoromethyl)aniline]	563 nM	2.4 nM	
CC12CC(COc3nc4c5c(nc(-c6cc(N)cc(Cl)c6C(F)(F)F)c(F)c5n3)OCC[C@@H]3[C@@H]5CC[C@H](CN43)N5)(CO1)C2 [Example 34, 3-chloro-5-((6aR,7S,10R)-1-fluoro-13-((1-methyl-2-oxabicyclo[2.1.1]hexan-4-yl)methoxy)-5,6,6a,7,8,9,10,11-octahydro-4-oxa-3,11a,12,14,15-pentaaza-7,10-methanocyclohepta[4,5]cyclo-octa[1,2,3-de]naphthalen-2-yl)-4-(trifluoromethyl)aniline]	148 nM	0.36 nM	
Cc1cc(N)cc(-c2nc3c4c(nc(OCC5(C(F)F)COC5)nc4c2F)N2C[C@H]4CC[C@H](N4)[C@H]2CCO3)c1C(F)(F)F [Example 26, 3-((6aR,7S,10R)-13-((3-(difluoromethyl)oxetan-3-yl)methoxy)-1-fluoro-5,6,6a,7,8,9,10,11-octahydro-4-oxa-3,11a,12,14,15-pentaaza-7,10-methanocyclohepta[4,5]cycloocta[1,2,3-de]naphthalen-2-yl)-5-methyl-4-(trifluoromethyl)aniline]	272 nM	0.52 nM	
Nc1cc(Cl)c(C(F)(F)F)c(-c2nc3c4c(nc(OCC56COC(C5)C6)nc4c2F)N2C[C@H]4CC[C@H](N4)C2CCO3)c1 (stereo partly drawn) [Example 23, 3-((7S,10R)-13-((2-oxabicyclo[2.1.1]hexan-4-yl)methoxy)-1-fluoro-5,6,6a,7,8,9,10,11-octahydro-4-oxa-3,11a,12,14,15-pentaaza-7,10-methanocyclohepta[4,5]cycloocta[1,2,3-de]naphthalen-2-yl)-5-chloro-4-(trifluoromethyl)aniline]	181 nM	0.53 nM	improved KRas WT selectivity
CN1C(=O)OC2(C)CC1(COc1nc3c4c(nc(-c5cc(N)cc(Cl)c5C(F)(F)F)c(F)c4n1)OCC[C@@H]1[C@@H]4CC[C@H](CN31)N4)C2 [Example 47, 5-((((6aR,7S,10R)-2-(5-amino-3-chloro-2-(trifluoromethyl)phenyl)-1-fluoro-5,6,6a,7,8,9,10,11-octahydro-4-oxa-3,11a,12,14,15-pentaaza-7,10-methanocyclohepta[4,5]cyclo-octa[1,2,3-de]naphthalen-13-yl)oxy)methyl)-1,4-dimethyl-2-oxa-4-azabicyclo[3.1.1]heptan-3-one]	154 nM	0.26 nM	
Nc1cc(Cl)c(C(F)(F)F)c(-c2nc3c4c(nc(OC[C@@]56CCCN5C[C@H](F)C6)nc4c2F)N2CC4CCC(N4)C2CO3)c1 (stereo partly drawn) [Example 10, 3-chloro-5-(1-fluoro-12-(((2R,7aS)-2-fluorotetrahydro-1H-pyrrolizin-7a(5H)-yl)methoxy)-5a,6,7,8,9,10-hexahydro-5H-4-oxa-3,10a,11,13,14-pentaaza-6,9-methanonaphtho[1,8-ab]heptalen-2-yl)-4-(trifluoromethyl)aniline]	8.1 nM	0.9 nM	
Nc1cc(Cl)c(C(F)(F)F)c(-c2nc3c4c(nc(OC[C@@]56CCCN5C[C@H](F)C6)nc4c2F)N2CCNCC2CCO3)c1 (stereo partly drawn) [Example 13, 3-chloro-5-(1-fluoro-12-(((2R,7aS)-2-fluorotetrahydro-1H-pyrrolizin-7a(5H)-yl)methoxy)-6,6a,7,8,9,10-hexahydro-5H-4-oxa-3,8,10a,11,13-pentaazabenzo[4,5]cycloocta[1,2,3-de]naphthalen-2-yl)-4-(trifluoromethyl)aniline]	21 nM	59 nM	
COCC12CC(COc3nc4c5c(nc(-c6cc(N)cc(Cl)c6C(F)(F)F)c(F)c5n3)OCC[C@@H]3[C@@H]5CC[C@H](CN43)N5)(CO1)C2 [Example 39, 3-chloro-5-((6aR,7S,10R)-1-fluoro-13-((1-(methoxymethyl)-2-oxabicyclo[2.1.1]hexan-4-yl)methoxy)-5,6,6a,7,8,9,10,11-octahydro-4-oxa-3,11a,12,14,15-pentaaza-7,10-methanocyclohepta[4,5]cyclo-octa[1,2,3-de]naphthalen-2-yl)-4-(trifluoromethyl)aniline]	292 nM	0.47 nM	
Cc1cc(N)cc(-c2nc3c4c(nc(OCC56COC(C5)C6)nc4c2F)N2C[C@H]4CC[C@H](N4)[C@H]2CCO3)c1C(F)(F)F [Example 27, 3-((6aR,7S,10R)-13-((2-oxabicyclo[2.1.1]hexan-4-yl)methoxy)-1-fluoro-5,6,6a,7,8,9,10,11-octahydro-4-oxa-3,11a,12,14,15-pentaaza-7,10-methanocyclohepta[4,5]cyclo-octa[1,2,3-de]naphthalen-2-yl)-5-methyl-4-(trifluoromethyl)aniline]	465 nM	1.2 nM	
